# Reference: PubChem BioAssay (Tox21)
# Inconclusive means that the source gave no clear call. Such entries were picked first, then a sample of the others. For some assays here: No potency is given beside an inconclusive call; the fits are too rough. Activity calls are given as the source filed them. Unless noted, calls come from the whole dose curve; as a rule, active = well fitted curve in the direction sought with a large enough effect in the repeat runs; inconclusive = weak or mixed curves; inactive = no such curve, though single readings can be large; an effect the other way counts as inactive or inconclusive.
# What was measured:
# [1] = qHTS assay for identifying genotoxic compounds that show differential cytotoxicity against isogenic chicken DT40 cell lines with known DNA damage response pathways - wild type cell line (AID 743012); details: DT40 wild type chicken cells viability, CellTiter-Glo, 40 h; activity change, negative = cytotoxicity: at 68.4 µM (top of the series) unless noted; note: nearly all actives have a fitted effect of over 60% in size; note: potency is the fitted concentration of half-maximal effect; for activity change, negative = cytotoxicity: % is set by controls: 0 for no effect and ±100 for the full control effect
# Procedure, shortened: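 300 wt DT40 cells/well; cpd (DMSO) pintool-transferred after ~0.5 h at 37 C/5% CO2; 40 h incubation; CellTiter-Glo added, 30 min RT; luminescence read.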
# [2] = system: thyroid hormone receptor (rat, GH3 cells); assay: qHTS assay to identify small molecule agonists of the thyroid receptor (TR) signaling pathway (AID 743066; calls by dose curve; note: % is set by controls: 0 for no effect and ±100 for the full control effect); details: GH3.TRE-Luc cells, TR agonist luciferase, 24 h; activation: at 83.9 µM (top of the series) unless noted
# [3] = qHTS assay to identify small molecule antagonists of the estrogen receptor alpha (ER-alpha) signaling pathway - cell viability counter screen (AID 743074; calls by dose curve; note: nearly all actives have a fitted effect of over 45% in size; note: potency is the fitted concentration of half-maximal effect)
# [4] = qHTS assay to identify small molecule antagonists of the thyroid receptor (TR) signaling pathway - cell viability counter screen (AID 743064); details: GH3.TRE-Luc viability, CellTiter-Fluor, 24 h; activity change, negative = cytotoxic: at 70.3 µM (top of the series) unless noted; note: nearly all actives have a fitted effect of over 50% in size; note: potency is the fitted concentration of half-maximal effect; for activity change, negative = cytotoxic: % is set by controls: 0 for no effect and ±100 for the full control effect
# Procedure, shortened: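 Rat GH3 pituitary tumor cells stably expressing two TR response elements driving luciferase were plated, rested 4 h, then dosed with library compounds and T3 (1 nM final). After 23.5 h at 37 °C, CellTiter-Fluor was added for 30 min and fluorescence recorded.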
# [5] = qHTS assay to identify aromatase inhibitors - cell viability counter screen (AID 743084); details: MCF-7 aro ERE viability, CellTiter-Fluor, 24 h; activity change, negative = cytotoxicity: at 70.3 µM (top of the series);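 note: cells stimulated with testosterone during compound exposure; potency is the fitted concentration of half-maximal effect; nearly all actives have a fitted effect of over 55% in size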
# [6] = target: Estrogen receptor (Homo sapiens) (UniProt P03372); assay: qHTS assay to identify small molecule antagonists of the estrogen receptor alpha (ER-alpha) signaling pathway (AID 743069; active = well fitted curve in the direction sought with a large enough effect in the signal ratio in the repeat runs, not every such curve was filed as active; inconclusive = weak or mixed curves, or effect the other way; inactive = no such curve, though single readings can be large or run the other way; the % refers to the signal ratio; note: % is set by controls: 0 for no effect and ±100 for the full control effect); details: HEK293 ER-alpha-UAS-bla, beta-lactamase ratio, antagonist mode; activity, negative = inhibition: at 69.4 µM (top of the series) unless noted
# UniProt P03372, sequence (P03372 whole entry, looked up): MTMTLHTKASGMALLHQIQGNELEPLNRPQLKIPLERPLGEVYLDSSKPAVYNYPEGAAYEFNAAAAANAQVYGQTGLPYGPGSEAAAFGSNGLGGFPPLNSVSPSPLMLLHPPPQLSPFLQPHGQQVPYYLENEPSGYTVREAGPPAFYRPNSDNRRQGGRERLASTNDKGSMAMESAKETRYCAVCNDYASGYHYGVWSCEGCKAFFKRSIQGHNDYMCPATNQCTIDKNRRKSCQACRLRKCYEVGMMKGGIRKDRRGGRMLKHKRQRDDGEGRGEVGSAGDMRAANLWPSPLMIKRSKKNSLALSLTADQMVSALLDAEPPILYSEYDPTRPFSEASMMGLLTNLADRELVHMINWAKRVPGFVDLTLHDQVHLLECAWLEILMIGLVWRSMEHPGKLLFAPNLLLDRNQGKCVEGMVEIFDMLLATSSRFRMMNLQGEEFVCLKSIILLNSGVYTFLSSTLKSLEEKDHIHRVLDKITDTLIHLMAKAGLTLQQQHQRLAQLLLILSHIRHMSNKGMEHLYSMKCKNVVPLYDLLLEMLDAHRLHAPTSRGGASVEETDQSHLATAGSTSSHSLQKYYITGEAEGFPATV
# Procedure, shortened: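 Screening used a UAS-driven beta-lactamase reporter integrated into HEK293 cells expressing ER-alpha, stimulated with 17beta-estradiol alongside test compounds over 18 hr at 37C; signal came from LiveBLAzer B/G FRET fluorescence.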
# [7] = qHTS assay to identify small molecule antagonists of the estrogen receptor alpha (ER-alpha) signaling pathway using the BG1 cell line (AID 743080; calls by dose curve;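 note: BG1 cells stimulated with 17beta-estradiol alongside compound; % is set by controls: 0 for no effect and ±100 for the full control effect; nearly all actives have a fitted effect of over 25% in size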); details: BG1Luc4E2 ERE-luciferase antagonist mode, luminescence; activity change, negative = inhibition: at 70.3 µM (top of the series) unless noted
# Procedure, shortened: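 Quantitative HTS on the Tox21 10K library: BG1 cells with endogenous ER-alpha and ERE-luciferase reporter, 17beta-estradiol stimulation, 21.5 h compound exposure, luminescence endpoint with parallel fluorescence cytotoxicity counter-read.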
# [8] = qHTS assay to identify small molecule antagonists of the thyroid receptor (TR) signaling pathway (AID 743065); note: potency is the fitted concentration of half-maximal effect; nearly all actives have a fitted effect of over 55% in size
# Procedure, shortened: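 GH3.TRE-Luc rat pituitary cells carrying two TR response elements driving luciferase were plated for 4 h, given compound plus 1 nM T3 (final), and incubated 23.5 h at 37 C. ONE-Glo luminescence measured reporter inhibition; CellTiter-Fluor fluorescence tracked cytotoxicity.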
# [9] = qHTS assay to identify small molecule antagonists of the estrogen receptor alpha (ER-alpha) signaling pathway using the BG1 cell line - cell viability counter screen (AID 743081);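 note: compound given together with 17beta-estradiol as the ER stimulus; potency is the fitted concentration of half-maximal effect; nearly all actives have a fitted effect of over 45% in size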
# Aromatase (Homo sapiens) = Aromatase (Homo sapiens) (UniProt P11511); assay: qHTS assay to identify aromatase inhibitors (AID 743083); note: potency is the fitted concentration of half-maximal effect; nearly all actives have a fitted effect of over 55% in size
# UniProt P11511, sequence (P11511 whole entry, looked up): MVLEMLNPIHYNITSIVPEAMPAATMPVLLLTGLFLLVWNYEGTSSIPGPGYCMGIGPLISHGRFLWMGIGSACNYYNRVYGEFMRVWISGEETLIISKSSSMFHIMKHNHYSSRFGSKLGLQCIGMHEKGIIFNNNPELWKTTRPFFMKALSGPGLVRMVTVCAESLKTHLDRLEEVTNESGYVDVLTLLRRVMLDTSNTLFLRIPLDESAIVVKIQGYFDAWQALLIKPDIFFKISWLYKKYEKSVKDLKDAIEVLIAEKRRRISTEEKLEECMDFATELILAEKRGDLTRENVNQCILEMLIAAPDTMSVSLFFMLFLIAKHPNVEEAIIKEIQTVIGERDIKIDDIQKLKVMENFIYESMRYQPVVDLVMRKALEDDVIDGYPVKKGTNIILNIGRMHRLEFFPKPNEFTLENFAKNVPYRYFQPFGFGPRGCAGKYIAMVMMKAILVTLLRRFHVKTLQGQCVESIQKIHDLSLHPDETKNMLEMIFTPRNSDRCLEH
# Tags give direction and shape of the fitted curve.
smiles,measurement,setting,value
NC(=O)NC(N)=O,Potency,[1],inactive
same,Potency,[2],inactive
same,Potency,[3],"inconclusive [rising, single point]"
CCCCN(CCCC)CCCCCCN(CCCC)CCCC,Potency,[1],inactive
same,Potency,[4],"inconclusive [rising, single point]"
same,Potency,[2],inactive
CC(C)NCC(O)COc1cccc2ccccc12 (centres undefined),Potency,[1],"inconclusive [cytotoxic, single point]"
same,Potency,[4],"inconclusive [cytotoxic, partial curve]"
same,Potency,[3],"inconclusive [cytotoxic, partial curve, poor fit]"
same,Potency,[5],"inconclusive [cytotoxic, partial curve, poor fit]"
c1ccc2ncccc2c1,Potency,[1],inactive
same,Potency,[4],inactive
same,Potency,[6],inactive
same,Potency,[7],inactive
CC1=C2[C@@H]([C@H](C)CC[C@H]2/C=C(\C)C(=O)O)[C@H](O)C1,Potency,[1],inactive
same,Potency,[6],inactive
CCCc1ccccc1,Potency,[1],"inconclusive [rising, partial curve, poor fit]"
same,Potency,[4],inactive
same,Potency,[2],inactive
same,Potency,[3],inactive
CC(=O)OCCN(CCOC(C)=O)c1ccc(N=Nc2ccc([N+](=O)[O-])cc2C#N)cc1,Potency,[1],active: 61.1 µM
same,Potency,[4],"inconclusive [cytotoxic, single point]"
same,Potency,[8],active: 61.1 µM
same,Potency,[9],inconclusive [cytotoxic]
same,Potency,Aromatase (Homo sapiens),"inconclusive [inhibitor, single point]"
same,Potency,[5],active: 27.3 µM
C=Cc1ccc(OC(C)=O)cc1,Potency,[1],inactive
same,"activity, negative = inhibition",[6],inconclusive: 21.3%
same,Potency,[3],"inconclusive [rising, partial curve, poor fit]"
